Test results as given in PubChem BioAssay.
The shares of active, inactive and inconclusive entries below differ from those in the screen. Calls of active or inactive are those of the source.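 Rule for the calls: active = thallium flux slope above the same plate's solvent-control mean plus 3 SD in both duplicate wells; inconclusive = duplicate wells that disagreed; inactive = the rest.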

experiment: native HEK Tl+ uptake effects, second counter-screen – HEK cells, counterscreen 2, counter-screen for KCC2 modulator project, confirmation (AID 1718); conditions: HEK293 parental, thallium flux FluoZin-2 fluorescence slope; at 10 µM;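 note: run without ouabain in cells lacking the KCC2 cotransporter; slope of fluorescence scaled to its starting value between 10 and 20 s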
Summary of the method: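 Test system: parental HEK cells / Reagent: thallium sulfate stimulus, 12 mM in buffer, pH 7.3 / Compound: single 10 µM final compound dose, 0.1% DMSO / Timing: overnight cell culture at 37 °C, 48 min dye loading, compound before thallium / Detection: FluoZin-2 fluorescence kinetics / Read-out: rate of F/F0 rise, 10–20 s after thallium addition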

Structure (SMILES) | thallium flux slope
C/C(=N/NC(=O)c1ccc2c(c1)OCO2)c1ccc(Br)s1 | inconclusive: 0.014
O=C(O)c1ccc(N2CC3CC(C2)c2cccc(=O)n2C3)c(NC(=S)Nc2ccc(Cl)cc2Cl)c1 (stereo unspecified) | inactive: 0.0128
O=C(/C=C/c1ccccc1)NC(=S)NNC(=O)Cc1cccs1 | inactive: 0.012
Cc1cccc(N2CCN(C(=O)CCCn3c(=S)[nH]c4cc5c(cc4c3=O)OCO5)CC2)c1C | inconclusive: 0.0127
CCOC(=O)c1c(NC(=O)CC2SC(N)=NC2=O)sc2c1CCCC2 (stereo unspecified) | inactive: 0.00979
CCCN(CCC)S(=O)(=O)c1ccc(C(=O)Nc2nnc(-c3cc(OC)cc(OC)c3)o2)cc1 | inactive: 0.0128
Cc1cc(C(=O)NC(=S)Nc2ccccc2N2CCOCC2)ccc1[N+](=O)[O-] | inconclusive: 0.0101
Cn1c(=O)c2c(nc(NCC3CCCO3)n2Cc2cccc(Br)c2)n(C)c1=O (stereo unspecified) | inconclusive: 0.0107
CC(C)n1c(-c2ccc(N(C)C)cc2)nc2ccccc21 | inactive: 0.00948
COc1ccc2c(-c3ccccc3)cc(SC(C)C(N)=O)nc2c1 (stereo unspecified) | inconclusive: 0.0117
O=C(N/N=C/c1ccc([N+](=O)[O-])s1)c1ccccc1 | inconclusive: 0.0175
O=C(O)/C=C/c1ccccc1Oc1ccc(Cl)cc1Cl | inactive: 0.01
Cc1cc(NC(=O)CSc2nc3ccccc3c(=O)n2Cc2ccc(F)cc2)no1 | inconclusive: 0.0168
O=[N+]([O-])c1cc(/C=N/n2c(-c3cccnc3)n[nH]c2=S)ccc1Cl | inconclusive: 0.0146
CN(C(=O)c1cccc(C#N)c1)c1nnc(-c2cnccn2)s1 | inconclusive: 0.0109
Cc1ccc(-n2ncc3c(Nc4cccc(C(=O)O)c4)ncnc32)cc1 | inactive: 0.0099
O=C(NC(=S)Nc1cccc([N+](=O)[O-])c1)c1ccccc1 | inconclusive: 0.0113
CC(C)Cc1cc(C(=O)Nc2sc3c(c2C#N)CCCC3)no1 | inconclusive: 0.0129
COc1ccc(OC)c2sc(NNC(=O)COc3ccccc3)nc12 | active: 0.0128
Clc1ccc(Oc2nc(N3CCOCC3)nc(N3CCOCC3)n2)cc1 | inconclusive: 0.0102
Cc1ccc(/C=N/n2c(-c3ccc(Cl)cc3)n[nH]c2=S)o1 | inconclusive: 0.0113
O=S(=O)(c1ccc(Cl)cc1)N(CCCN1CCOCC1)Cc1cccs1 | inactive: 0.00991
Cc1ccc(-c2c[nH]c(=S)n2-c2ccccc2)cc1 | inconclusive: 0.0148
Cc1ccccc1-n1c(-c2ccc3ccccc3n2)n[nH]c1=S | inactive: 0.0132
S=C(NCc1ccccc1Cl)Nc1ccccc1Cl | inactive: 0.00855
Cc1ccnc(NC(=S)NC(=O)c2cncc(Br)c2)c1 | active: 0.014
